# Measurements taken from the supplement of paper PMC4604168 (melanoma cell lines).
# The list shows a part of the results. Most values come without repeats; read them as rough.
# Legend:
# Experiment in all cases: cell count relative to DMSO control; melanoma cells; higher = more viable cells
# Details in all cases: library dose: low library concentration; 72 h
# MZ2-MEL = system: MZ2-MEL
# MeWo = system: MeWo
# RPMI7951 = system: RPMI7951
# RVH-421 = system: RVH-421
# SkMel28 = system: SkMel28
# SkMel2 = system: SkMel2
# SkMel30 = system: SkMel30
# UACC62 = system: UACC62
# SkMel5 = system: SkMel5
# UACC257 = system: UACC257
# 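Note: cell number obtained by counting DAPI-stained nuclei in high-throughput microscope images with image analysis software, screen run in 1,536-well plates.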
SMILES,cell count (MZ2-MEL) [%],cell count (MeWo) [%],cell count (RPMI7951) [%],cell count (RVH-421) [%],cell count (SkMel28) [%],cell count (SkMel2) [%],cell count (SkMel30) [%],cell count (UACC62) [%],cell count (SkMel5) [%],cell count (UACC257) [%]
"Clc1ccc(Nc2nnc(Cc3ccncc3)c3ccccc23)cc1 [vatalanib] + Cc1nc(Nc2ncc(C(=O)Nc3c(C)cccc3Cl)s2)cc(N2CCN(CCO)CC2)n1 [dasatanib] (first compound 2 µM, partner dose 0.004 µM)",77.2,60.9,43.6,68,87.6,89.3,104,79,–,–
"C#Cc1cccc(Nc2ncnc3cc(OCCOC)c(OCCOC)cc23)c1 [erlotinib] + Cn1c(Nc2ccc(C(F)(F)F)cc2)nc2cc(Oc3ccnc(-c4ncc(C(F)(F)F)[nH]4)c3)ccc21 [CHIR265] (first compound 0.8 µM, partner dose 0.08 µM)",75.7,71.1,60,80.2,56.4,93.3,41,64.9,–,–
"COCC[n+]1c2c(n(Cc3cnccn3)c1C)C(=O)c1ccccc1C2=O + Cn1nnc2c(C(N)=O)ncn2c1=O [temozolomide] (first compound 0.0004 µM, partner dose 2 µM)",43.7,95.1,73,101,85,79.7,89.6,94.3,–,–
"Clc1ccc(Nc2nnc(Cc3ccncc3)c3ccccc23)cc1 [vatalanib] + COc1ccc2c(c1)CCC1C2CCC2(C)C(NCCCCCCN3C(=O)C=CC3=O)CCC12 [U73122] (first compound 2 µM, partner dose 0.4 µM)",77.8,69.3,59.7,94.2,68.1,0.0921,71.4,65.2,74.2,72.8
"OCc1c[nH]c2ccccc12 [Indole-3-carbinol] + COCC[n+]1c2c(n(Cc3cnccn3)c1C)C(=O)c1ccccc1C2=O [YM155] (first compound 0.8 µM, partner dose 0.0004 µM)",54.8,100,100,85.1,110,97.5,95.7,90.4,–,–
"COCC[n+]1c2c(n(Cc3cnccn3)c1C)C(=O)c1ccccc1C2=O + C[C@]1(c2nc3c(C(N)=O)cccc3[nH]2)CCCN1 [Veliparib] (first compound 0.0004 µM, partner dose 1.4 µM)",59.5,90.1,81.7,85.8,91.7,77.4,85,78.6,–,–
"Nc1cccc2c1CN(C1CCC(=O)NC1=O)C2=O (stereo not given) [lenalidomide] + OCCn1cc(-c2cnc3nnn(Cc4ccc5ncccc5c4)c3n2)cn1 [PF04217903] (first compound 1 µM, partner dose 1 µM)",104,95.3,94,99.8,112,100,110,102,89.1,97
"OCc1c[nH]c2ccccc12 [Indole-3-carbinol] + C[C@]1(c2nc3c(C(N)=O)cccc3[nH]2)CCCN1 [Veliparib] (first compound 0.8 µM, partner dose 1.4 µM)",92.3,106,128,96.5,97.6,96.1,79.3,92.2,–,–
"C#Cc1cccc(Nc2ncnc3cc(OCCOC)c(OCCOC)cc23)c1 [erlotinib] + Cc1nc(Nc2ncc(C(=O)Nc3c(C)cccc3Cl)s2)cc(N2CCN(CCO)CC2)n1 [dasatanib] (first compound 0.8 µM, partner dose 0.004 µM)",78.9,79,67.3,107,81.5,93.6,73.1,78.4,–,–
"COCC[n+]1c2c(n(Cc3cnccn3)c1C)C(=O)c1ccccc1C2=O + O=C(Nc1ccccc1)c1cc([N+](=O)[O-])ccc1Cl [GW9662] (first compound 0.0004 µM, partner dose 2 µM)",62.3,94,79.9,50.4,103,–,78.9,95.3,81.6,101
"C#Cc1cccc(Nc2ncnc3cc(OCCOC)c(OCCOC)cc23)c1 [erlotinib] + O=C(Nc1ccccc1)c1cc([N+](=O)[O-])ccc1Cl [GW9662] (first compound 0.8 µM, partner dose 2 µM)",91.8,84.7,106,89.3,83.8,–,89.9,88.3,83.3,93.9
"C#Cc1cccc(Nc2ncnc3cc(OCCOC)c(OCCOC)cc23)c1 [erlotinib] + c1cc(-c2cnn3cc(-c4ccc(OCCN5CCCCC5)cc4)cnc23)ccn1 [Dorsomorphin] (first compound 0.8 µM, partner dose 0.4 µM)",98.7,94.4,97.9,96.3,87.3,–,90.6,81.5,88.2,88
"COCC[n+]1c2c(n(Cc3cnccn3)c1C)C(=O)c1ccccc1C2=O + CC(C)CCN1c2nc(Nc3cc(F)c(O)c(F)c3)ncc2N(C)C(=O)C1C [BID1870] (first compound 0.0004 µM, partner dose 0.2 µM)",51.8,82.8,97.6,95.6,88.5,–,89.9,86.2,85.9,97.4
"C#Cc1cccc(Nc2ncnc3cc(OCCOC)c(OCCOC)cc23)c1 [erlotinib] + COc1cc(N2CCC(N3CCN(C)CC3)CC2)ccc1Nc1ncc(Cl)c(Nc2ccccc2S(=O)(=O)C(C)C)n1 [NVP-TAE684] (first compound 0.8 µM, partner dose 0.08 µM)",95.3,77.8,109,97.3,82.2,–,82.3,89.8,90.1,79.2
"C#Cc1cccc(Nc2ncnc3cc(OCCOC)c(OCCOC)cc23)c1 [erlotinib] + N#Cc1c(O)c2c(-c3ccc(-c4ccccc4O)cc3)csc2[nH]c1=O [A769662] (first compound 0.8 µM, partner dose 2 µM)",93.9,93.4,109,117,91.7,–,77.2,83.7,105,80.9
"C#Cc1cccc(Nc2ncnc3cc(OCCOC)c(OCCOC)cc23)c1 [erlotinib] + CCc1ccc(CCOc2ccc(CC3SC(=O)NC3=O)cc2)nc1 [pioglitazone] (first compound 0.8 µM, partner dose 2 µM)",90.6,98.1,95.7,93.5,96.6,–,88.9,91.1,91.5,87.7
"COCC[n+]1c2c(n(Cc3cnccn3)c1C)C(=O)c1ccccc1C2=O + O=c1cc(-c2cccc3c2Sc2ccccc2S3)oc(N2CCOCC2)c1 [KU55933] (first compound 0.0004 µM, partner dose 1 µM)",54.7,94.2,75.8,149,70.6,–,98.6,94.1,74.4,88.3
"COCC[n+]1c2c(n(Cc3cnccn3)c1C)C(=O)c1ccccc1C2=O + COc1ccc2c(c1)CCC1C2CCC2(C)C(NCCCCCCN3C(=O)C=CC3=O)CCC12 [U73122] (first compound 0.0004 µM, partner dose 0.4 µM)",77.6,101,88.5,97.6,98.3,–,80.3,108,87.4,96.6
"C#Cc1cccc(Nc2ncnc3cc(OCCOC)c(OCCOC)cc23)c1 [erlotinib] + O=C1NC(=O)/C(=C/c2ccc(-c3ccc(F)cc3O)o2)S1 [AS252424] (first compound 0.8 µM, partner dose 1 µM)",93.4,77.9,109,101,84.7,–,96.7,86.6,107,82.7
"Nc1cccc2c1CN(C1CCC(=O)NC1=O)C2=O (stereo not given) [lenalidomide] + O=C1NC(=O)/C(=C/c2ccc(-c3ccc(F)cc3O)o2)S1 [AS252424] (first compound 1 µM, partner dose 1 µM)",94.8,102,107,99.5,104,–,105,102,99.9,112
"O=C(CCCCCCC(=O)Nc1ccccc1)NO [vorinostat] + N#Cc1c(O)c2c(-c3ccc(-c4ccccc4O)cc3)csc2[nH]c1=O [A769662] (first compound 0.08 µM, partner dose 2 µM)",97.4,97.4,80.8,100,80.9,–,108,76.6,95.1,86.1
"O=C(CCCCCCC(=O)Nc1ccccc1)NO [vorinostat] + CCc1ccc(CCOc2ccc(CC3SC(=O)NC3=O)cc2)nc1 [pioglitazone] (first compound 0.08 µM, partner dose 2 µM)",103,93,94.1,100,84.7,–,106,109,93.8,91.7
"COCC[n+]1c2c(n(Cc3cnccn3)c1C)C(=O)c1ccccc1C2=O + N#Cc1c(O)c2c(-c3ccc(-c4ccccc4O)cc3)csc2[nH]c1=O [A769662] (first compound 0.0004 µM, partner dose 2 µM)",68,100,99,95.5,101,–,95.9,88.9,81.2,115
"COCC[n+]1c2c(n(Cc3cnccn3)c1C)C(=O)c1ccccc1C2=O + CCc1ccc(CCOc2ccc(CC3SC(=O)NC3=O)cc2)nc1 [pioglitazone] (first compound 0.0004 µM, partner dose 2 µM)",56.2,97.4,80,135,76.6,–,113,79.6,72.3,91.3
"O=C(CCCCCCC(=O)Nc1ccccc1)NO [vorinostat] + Cc1cc([N+](=O)[O-])ccc1NS(=O)(=O)c1cc(Cl)ccc1Cl [FH535] (first compound 0.08 µM, partner dose 1 µM)",95.1,95.4,119,72.7,69.1,–,89.2,74,77.7,77.5
